Consider 88 compounds from paper PMC4336329 (PLoS ONE, 2015).

The whole screen tested about 310,000 compounds, of which about 2,200 (0.71%) showed an effect of 50% or more. The effect is printed as a negative number. The list shows a part of the results.

The target of this assay is human ether-à-go-go-related gene (hERG) potassium channel (human, UniProt Q12809). The assay is described as follows: primary screen, population patch clamp on CHO cells stably expressing hERG.
Sequence of human ether-à-go-go-related gene (hERG) potassium channel (Q12809 whole entry, looked up): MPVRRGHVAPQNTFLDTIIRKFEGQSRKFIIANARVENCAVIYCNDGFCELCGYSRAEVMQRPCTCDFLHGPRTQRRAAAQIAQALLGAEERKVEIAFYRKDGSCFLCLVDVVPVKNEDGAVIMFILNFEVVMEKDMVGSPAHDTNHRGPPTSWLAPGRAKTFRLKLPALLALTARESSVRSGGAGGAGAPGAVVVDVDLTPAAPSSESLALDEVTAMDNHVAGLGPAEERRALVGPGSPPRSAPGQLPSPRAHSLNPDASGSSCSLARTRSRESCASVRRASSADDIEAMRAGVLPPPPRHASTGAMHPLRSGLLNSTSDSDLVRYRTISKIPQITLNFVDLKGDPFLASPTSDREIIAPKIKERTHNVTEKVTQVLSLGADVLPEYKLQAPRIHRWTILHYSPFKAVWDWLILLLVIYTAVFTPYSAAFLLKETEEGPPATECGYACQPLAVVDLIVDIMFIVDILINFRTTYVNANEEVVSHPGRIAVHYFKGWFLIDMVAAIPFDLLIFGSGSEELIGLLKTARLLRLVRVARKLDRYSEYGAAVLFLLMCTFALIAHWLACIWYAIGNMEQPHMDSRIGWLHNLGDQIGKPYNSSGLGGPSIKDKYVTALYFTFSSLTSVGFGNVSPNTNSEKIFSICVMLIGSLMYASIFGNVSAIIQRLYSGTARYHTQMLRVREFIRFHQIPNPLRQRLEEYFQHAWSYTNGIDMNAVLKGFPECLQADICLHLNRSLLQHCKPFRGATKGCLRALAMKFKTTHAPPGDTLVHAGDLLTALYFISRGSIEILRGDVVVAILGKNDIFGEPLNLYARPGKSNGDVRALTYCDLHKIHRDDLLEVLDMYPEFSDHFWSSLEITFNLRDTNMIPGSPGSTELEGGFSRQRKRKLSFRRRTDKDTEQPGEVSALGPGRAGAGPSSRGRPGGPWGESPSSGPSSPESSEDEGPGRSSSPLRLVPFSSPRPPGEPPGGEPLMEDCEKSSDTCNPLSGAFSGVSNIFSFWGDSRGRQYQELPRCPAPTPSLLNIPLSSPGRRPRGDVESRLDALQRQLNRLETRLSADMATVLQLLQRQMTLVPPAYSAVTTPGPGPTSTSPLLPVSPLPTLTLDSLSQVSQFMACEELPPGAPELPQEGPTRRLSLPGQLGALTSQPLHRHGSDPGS
In the case of `CN(CC(=O)Nc1c(Cl)cccc1Cl)C(=O)CC1OC(=O)c2ccccc21` (stereo not shown), the “hERG current change (%, negative = inhibition) at 1uM” value is given as 5.21%. The figure for `O=C(NNC(=O)c1ccccc1F)c1ccc(-n2cncn2)c([N+](=O)[O-])c1` is 12.5%; for `O=C1c2ccccc2NC(c2ccccc2Br)N1CCCN1CCOCC1` (stereo not shown) it is 7.35%; for `N#Cc1cccc(S(=O)(=O)Nc2c(NC3CCCCC3)c3ccccc3oc2=O)c1` it is -7.68%. The figure for `CC(=O)OCC(=O)Nc1ccc(Br)c(C)c1` is 13.5%. As to `Cc1onc(-c2ccccc2Cl)c1C(=O)OCn1nnc2ccccc2c1=O`, the “hERG current change (%, negative = inhibition) at 1uM” value was found to be 8.12%. The figure for `COC(=O)C1CCN(C(=O)COC(=O)C2CCN(S(=O)(=O)c3c(Cl)cccc3Cl)CC2)CC1` is -1.82%. The figure for `COc1ccc(-c2nc(CS(=O)CC(=O)NCC3CCCO3)c(C)o2)cc1` (stereo not shown) is 2.15%; for `OCC[C@H]1C[C@@H](O)[C@H](O)[C@]2(CCc3ccccc3CO2)O1` it is 3.84%. For `Cc1ccccc1NS(=O)(=O)c1ccc(C(=O)N2CCN(c3ccccc3O)CC2)cc1`, the “hERG current change (%, negative = inhibition) at 1uM” value came to 2.23%. Consider `O=c1c2ccccc2cnn1Cc1n[nH]c(=S)n1-c1ccccc1`, for which the “hERG current change (%, negative = inhibition) at 1uM” value stood at 18.6%. With `COc1ccc(Cl)c(Cn2c(NCc3ccccn3)nc3c2c(=O)n(C)c(=O)n3C)c1`, the “hERG current change (%, negative = inhibition) at 1uM” value turned out to be 0.477%.

For `COc1ccc(CN(C)C(=O)CNC(=O)c2ccc3ccccc3c2)c(OC)c1`, the “hERG current change (%, negative = inhibition) at 1uM” value was determined as 11.4%. The figure for `c1ccc(COn2nnc3ccccc32)c(COn2nnc3ccccc32)c1` is 7.33%; for `Cc1cc(NC(=O)NCC(F)(F)F)no1` it is 13%; for `CCSc1ccc2nnc(-c3cccs3)n2n1` it is 8.9%. Under `CC(C)(C)n1nnnc1CN(Cc1ccc(F)cc1)Cc1ccco1` stands 6.94%; under `Cc1ccc(S(=O)(=O)N2CCCCC2)cc1NC(=O)CSc1ncn[nH]1`, 13.3%; under `COc1ccc(-c2nn(-c3ccccc3)cc2C(=O)Nc2ccc(C(=O)O)cc2)cc1`, 13.8%. Under `Cc1nc(NC(=O)/C=C/c2ccccc2)sc1C(=O)Nc1ccc(Cl)cc1` stands 4.18%. With `COc1ccc(CCNC(=O)c2ccccc2N(C)S(=O)(=O)c2ccccc2)cc1`, the “hERG current change (%, negative = inhibition) at 1uM” value amounted to 1.53%. For the compound `O=C(O)c1cccnc1NC1CCCC1`, the “hERG current change (%, negative = inhibition) at 1uM” value turned out to be 5.11%. Under `Cc1ccc(OCCOc2ccc(Cl)cc2Cl)c([N+](=O)[O-])n1` stands 9.51%.

As for `O=C(O)c1ccc(-n2nncc2-c2ccccc2)cc1`, the “hERG current change (%, negative = inhibition) at 1uM” value is 10.2%. Turning to `COc1ccc(NC(=O)c2cnn(-c3ccccc3)c2C)c(OC)c1`, the “hERG current change (%, negative = inhibition) at 1uM” value was found to be 15.8%. Consider `Cc1[nH][nH]c(=O)c1C(c1ccc(N(C)C)c(Br)c1)c1c(C)[nH][nH]c1=O`, for which the “hERG current change (%, negative = inhibition) at 1uM” value is listed as 17.5%. On to `COc1ccc(C(=O)CC(=O)C(=O)Nc2ccccc2OC)cc1`, for which the “hERG current change (%, negative = inhibition) at 1uM” value is 2.15%.

Regarding `CCc1cccc(N(CC(=O)NCc2ccc(F)cc2)C(=O)c2csnn2)c1`, the “hERG current change (%, negative = inhibition) at 1uM” value is 3.81%. As for `COc1cccc(-c2n[nH]c(=S)n2Cc2ccco2)c1`, the “hERG current change (%, negative = inhibition) at 1uM” value stood at 12.1%.

Consider `COc1ccc(CN2CC(C(=O)NCCCOC(C)C)CC2=O)cc1` (stereo not shown), for which the “hERG current change (%, negative = inhibition) at 1uM” value turned out to be 9.25%. The figure for `CCOC(=O)C1(CCc2ccccc2)CCN(Cc2ccc(O)cc2)CC1` is -86.3%. Under `Cn1nc(C(=O)Nc2ccc(S(=O)(=O)N3CCCC3)cc2)ccc1=O` stands 3.55%; under `CC(OC(=O)CCC(=O)c1cccs1)C(=O)Nc1ccccc1[N+](=O)[O-]` (stereo not shown), 15.8%. Take `CC(C)NC(=O)c1cc2c(s1)CCCC2`: the “hERG current change (%, negative = inhibition) at 1uM” value worked out at 4.21%. `CCN(CC)C(=O)Nc1ccc(C(=O)OC)cc1`: the “hERG current change (%, negative = inhibition) at 1uM” value is 5.01%. The figure for `Cc1ccccc1NC(=O)c1cccc(N2C(=O)C3CCC(C)CC3C2=O)c1` (stereo not shown) is 22.2%; for `COc1ccc(OC)c(CCNC(=O)Cn2nc(C)c3c(C)n(-c4ccc(C)cc4)nc3c2=O)c1` it is 9.8%; for `COc1ccc(Br)cc1CN1CCN(C(=O)c2ccco2)CC1.O=C(O)C(=O)O` it is 0.835%.

With `O=C(NCc1cccnc1)c1ccc(NC(=O)c2cccc([N+](=O)[O-])c2)cc1`, the “hERG current change (%, negative = inhibition) at 1uM” value stood at 0.436%. On to `O=C(NCc1ccco1)C1CCCN(S(=O)(=O)c2cc(Cl)ccc2Cl)C1` (stereo not shown), for which the “hERG current change (%, negative = inhibition) at 1uM” value amounted to 2.52%.

In the case of `C/C(=N\NC(=O)C(O)(c1ccccc1)c1ccccc1)c1ccc(NC(=O)CCCC(=O)O)cc1`, the “hERG current change (%, negative = inhibition) at 1uM” value was 11.3%. As for `CCCCN(C(=O)CCC(=O)Nc1cc(C)on1)C(C(=O)NC(C)(C)C)c1cccc(OC)c1OC` (stereo not shown), the “hERG current change (%, negative = inhibition) at 1uM” value was 17.3%. Turning to `Cc1cc(C)n2nc(Sc3ncccc3[N+](=O)[O-])nc2n1`, the “hERG current change (%, negative = inhibition) at 1uM” value came out at 16.2%. Under `COc1ccc(OC)c2sc(N(CCN(C)C)C(=O)/C=C/c3cccs3)nc12.Cl` stands -35.1%; under `COc1cc2c(cc1OC)CN(CC(=O)Nc1ccc(C)c(C)c1)CC2`, 6.48%; under `COc1cccc(C(=O)Nc2cc(C(=O)NCCc3ccccc3)ccc2Cl)c1`, 10.9%. Under `O=C(COC(=O)c1nc(Cl)ccc1Cl)Nc1ccc2[nH]c(=O)[nH]c2c1` stands -2.16%; under `c1cncc(-c2nnc3n2CCC3)c1`, 9.61%.

Regarding `COc1ccc(NC(=O)C2(c3cccs3)CCOCC2)cc1`, the “hERG current change (%, negative = inhibition) at 1uM” value came out at 6.2%. Consider `COc1ccc(S(=O)(=O)NC(CC(=O)NCCc2ccccc2)c2ccco2)cc1` (stereo not shown), for which the “hERG current change (%, negative = inhibition) at 1uM” value is listed as 15.3%. Under `CNC(=S)Nc1ccc(C)cc1` stands 12.7%; under `CCOc1ccc(/C(C)=N/N2C(=O)C(CC(=O)Nc3ccc(OC)cc3[N+](=O)[O-])SC2=Nc2cccc(C)c2C)cc1` (stereo not shown), 5.11%. Under `COc1ccccc1NC(=S)NC1CCCCCC1` stands 7.94%. Under `CCNC(=S)Nc1ccc(OC(F)(F)F)cc1` stands 3.99%. Take `COc1ccc(-c2nnc(SCC(=O)NCc3ccco3)o2)cc1`: the “hERG current change (%, negative = inhibition) at 1uM” value was 9.15%. As to `CC1CCCN(C(=O)CN(C)S(=O)(=O)c2cccc3nsnc23)C1` (stereo not shown), the “hERG current change (%, negative = inhibition) at 1uM” value was 10.1%. Under `Cc1nc2ncnn2c(C)c1CCC(=O)N1CCN(Cc2ccccc2)CC1` stands 0.596%; under `Cc1cccc(Nc2nc(N)c([N+](=O)[O-])c(N3CC(C)CC(C)C3)n2)c1` (stereo not shown), 16.2%; under `Cc1ccc(-c2nnc(SCC(=O)N/N=C/c3c(C)nn(-c4ccccc4)c3C)n2-c2ccc(C)cc2)cc1`, 6.43%.

Regarding `O=C(CSc1nccn(-c2ccc(F)c(Cl)c2)c1=O)NC1CCCC1`, the “hERG current change (%, negative = inhibition) at 1uM” value stood at 13.1%. Under `CC(C(=O)NCCc1ccc(Cl)cc1)n1c(=O)c2cccn2c2cccnc21` (stereo not shown) stands 2.33%. Under `O=C(CCCOc1ccccc1)NC(=S)Nc1ccccc1` stands 8.02%. The figure for `Nc1ccc(SCC(=O)Nc2cccc([N+](=O)[O-])c2)cc1` is 6.76%. Take `O=C(NCc1ccco1)c1ccc(S(=O)(=O)N2CCCCCC2)cc1`: the “hERG current change (%, negative = inhibition) at 1uM” value worked out at 4.29%. Regarding `COc1cc(NC(=O)Cn2ccsc2=N)cc(OC)c1.Cl`, the “hERG current change (%, negative = inhibition) at 1uM” value was found to be 11.4%. The figure for `CCOC(=O)c1nnn(-c2nonc2N)c1CN1CCCCCC1` is 2.5%. On to `Cc1cc(Cl)c(S(N)(=O)=O)cc1OCC(N)=O`, for which the “hERG current change (%, negative = inhibition) at 1uM” value is reported as 9.34%.

As for `Oc1ccc(C2=Nn3c(nnc3-c3ccco3)SC2)cc1O`, the “hERG current change (%, negative = inhibition) at 1uM” value stood at 1.36%.

On to `Cc1ccc(S(=O)(=O)Nc2ccc(N(C)C)cc2)cc1`, for which the “hERG current change (%, negative = inhibition) at 1uM” value turned out to be 12.3%. With `COc1ccc(NS(=O)(=O)/C=C/c2ccccc2)cc1`, the “hERG current change (%, negative = inhibition) at 1uM” value came to 15.3%. The figure for `COc1cc(F)c(C2=CC(=O)CC(C)(C)C2)cc1F` is 5.92%; for `CC(=O)Nc1ccc(S(=O)(=O)N(Cc2ccccc2)c2ccccc2F)cc1` it is 8.33%; for `CCNc1nc(NCC)n2c(SCC(=O)Nc3ccc(Br)cc3F)nnc2n1` it is 2.95%. Under `COc1cc(S(=O)(=O)n2cnc(C)c2)ccc1Br` stands 8.54%. The figure for `CCN(CC)C(=O)C1CCCN(Cc2ccccc2)C1` (stereo not shown) is 11.9%. Regarding `Cc1ccc(S(=O)(=O)Oc2ccc3c(c2)O/C(=C\c2cccnc2)C3=O)cc1`, the “hERG current change (%, negative = inhibition) at 1uM” value is on record as -1.74%. Turning to `CCOC(=O)c1sc(NC(=O)c2cccnc2)nc1C`, the “hERG current change (%, negative = inhibition) at 1uM” value amounted to 12.8%. Take `CCOCCc1nnc(NC(=O)C2CC(=O)N(c3ccc(OCC)cc3)C2)s1` (stereo not shown): the “hERG current change (%, negative = inhibition) at 1uM” value is -3.6%. The figure for `Cc1noc(C)c1CSCC(=O)Nc1nc2c(F)cc(F)cc2s1` is 5.73%; for `COc1ccccc1-c1nnc(SCC(=O)N2CCOCC2)o1` it is 2.31%. The figure for `COc1ccccc1-c1nnc(SCC(=O)Nc2ccc(S(N)(=O)=O)cc2)n1N` is -0.408%. As for `Cc1cccc(N(CC(=O)NC2CCCC2)C(=O)CNC(=O)c2ccco2)c1C`, the “hERG current change (%, negative = inhibition) at 1uM” value stood at 19.9%.

As to `O=C(Nc1ccccc1C(=O)O)c1ccc(NC(=O)C2CCCCC2)cc1`, the “hERG current change (%, negative = inhibition) at 1uM” value amounted to 11.6%. Under `CCC1CCCCN1CCCNC(=O)CCC(=O)N1CCOc2ccccc21` (stereo not shown) stands 11.5%; under `Cc1ncoc1C(=O)NCCC(c1ccccc1)c1ccccc1`, 7.32%. The figure for `COc1cc(OC)cc(-c2c(-c3ccc(F)cc3)c3cc(-c4cccc5[nH]ccc45)ccc3n2C)c1` is 6.16%; for `Cc1nnc(NC(=O)CSc2nnc(CC(=O)Nc3ccccc3F)n2C)s1` it is 10.6%. The figure for `CCOC(=O)C1CCN(S(=O)(=O)c2cn(C)c(C)n2)CC1` is 13.8%.
